Assay results taken from PubChem BioAssay AID1963576 (National Center for Advancing Translational Sciences (NCATS), 2024).
Among all 46,000 compounds or so, about 60 (0.1%) were called active. Not shown: some 3% with an inconclusive outcome. Calls come from the whole dose curve; as a rule, active = well fitted inhibition curve with a large enough effect; inconclusive = small, poorly fitted or top-dose-only effect; inactive = no such curve, though single readings can be large or run the other way. Some of the results follow.

Assay: Primary qHTS assay for Inhibitors of ovarian cancer metastasis using an organotypic tumor microenvironment (TME) model.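 For activity change, negative = inhibition: plate controls were DMSO wells for no effect and tomatine positive control wells for full effect.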 Note: nearly all actives have a fitted effect of over 65% in size.
Conditions: SKOV3ip1-GFP adhesion/invasion on 3D omental model, fluorescence; series mostly up to 45.8 µM; activity change, negative = inhibition: at the top concentration
Method in brief: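 Primary human omental fibroblast/mesothelial 3D culture pre-formed 48 h. SKOV3ip1-GFP cells added with compounds (0.36-46 umol/L), incubated 2 h RT/16 h 37 C, fixed; GFP cells quantified at 488/509 nm.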

Activity change, negative = inhibition, inactive:
Cc1ccccc1CCNC(=O)c1ccc2c(c1)nc1n2CCOC1 3.12%
COC(=O)c1scc(-c2ccc(C)cc2)c1S(=O)(=O)Nc1cc(Cl)c(OC)cc1OC -6.58%
CCCn1c(CCC(=O)Nc2cc(OC)cc(OC)c2)nc2cccnc21 -8.6%
CCCCOc1ccc(Cn2c(=O)sc3ccccc32)cc1OC 0.0919%
CCCn1c(CCC(=O)Nc2cc(C(=O)OC)cc(C(=O)OC)c2)nc2cccnc21 -1.79%
COc1ccc(-n2c(=O)c3sc4ccccc4c3n(C)c2=O)cc1 -4.31%
CCSc1ncc(Cl)c(C(=O)Nc2nc3ccc(S(C)(=O)=O)cc3s2)n1 -2.82%
CCCN1CCN(c2nnc(-n3cccc3C(=O)Nc3cc(Cl)ccc3C)s2)CC1 -3.45%
CCC(=O)N1c2ccccc2CC1C(=O)NCCc1cc(OC)c(OC)c(OC)c1 (stereo unspecified) -4.11%
NC(=O)Cc1cccc(C(=O)c2ccccc2)c1N -13%
N#CC1(c2cccc(C(=O)Nc3cc(Oc4ccc5nc(NC(=O)C6CC6)sc5n4)ccc3F)c2Cl)CC1 16.4%
C[C@H]1COC2=C1C(=O)C(=O)c1c2ccc2c1CCCC2(C)C 11.6%
Cc1ccc(-c2nc(CS(=O)CC(=O)NCc3ccccc3Cl)c(C)o2)cc1 (stereo unspecified) 0.0587%
CCOC(=O)Cc1ccc(NC(=O)N2CCSc3ccccc32)cc1 -3.28%
CCOc1ccc2nc(SCC(=O)Nc3ccc(F)cc3)nc(-c3ccccc3)c2c1 -15.3%
O=c1ccc2cc(S(=O)(=O)Nc3ccc(F)c(Cl)c3)ccc2[nH]1 -0.119%
COc1ccccc1NC(=O)CSC1=Nc2ccccc2C2=NC(CCC(=O)NCc3ccco3)C(=O)N12 (stereo unspecified) -12.7%
CCCN(CCC)CCCNC(=O)C1CCCN(Cc2nc(-c3ccc(Cl)cc3)oc2C)C1 (stereo unspecified) -26.4%
O=S(=O)(c1ccc(Cl)cc1)c1nc(-c2cccs2)oc1SCc1ccc(F)cc1 3.96%
Cc1ccc(-n2ncc3c(NC(C)c4ccccc4)ncnc32)cc1 (stereo unspecified) 0.658%
CCc1ccc(CNC(=O)c2cc3n(n2)CCCN(Cc2ccccc2)C3=O)cc1 -7.55%
Cc1ccc(Cn2c(=O)n(CCc3ccc(Cl)cc3)c(=O)c3ccccc32)cc1 8.69%
O=C(Nc1nc2ccccc2n1CCN1CCOCC1)c1cccc([N+](=O)[O-])c1 -0.669%
COc1ccc(OC)c(NC(=O)C2Cc3ccccc3CN2S(=O)(=O)c2ccc(F)cc2)c1 (stereo unspecified) -4.73%
CC1=C(C(=O)Nc2ccc(Cl)cc2)C(c2ccccc2F)n2nc(SCc3cccc(Cl)c3)nc2N1 (stereo unspecified) 4.92%
Cc1sc2ncn(CC(=O)Nc3ccc(C(C)C)cc3)c(=O)c2c1S(=O)(=O)N1CCN(c2ncccn2)CC1 9.19%
COc1ccc(S(=O)(=O)Nc2ccc3oc4c(c3c2)CCCC4)cc1 -21%
Cc1cccc(-c2noc(-c3cccnc3NCc3ccc(Cl)cc3)n2)c1 1.03%
CC1(C)N=C(SCc2ccccc2Cl)c2ccccc2N1 -6.77%
COc1ccc(CCNC(=O)CCCCn2c(=O)c3ccccc3n(CC(=O)Nc3c(C)cccc3C)c2=O)cc1OC -13%
C#CCn1c(=NC(=O)c2ccc3c(c2)OCCO3)sc2cc(OC)c(OC)cc21 -3.32%
Cc1ccccc1C(=O)N1CC(=O)Nc2ccc(Cl)cc2C1c1ccccc1 (stereo unspecified) 1.9%
O=C(CCSCc1cccc(Cl)c1)N1CCN(c2ccc(Cl)cc2)CC1 -2.72%
Cc1nc2ccc(S(=O)(=O)CCC(=O)Nc3ccc(Cl)cc3)cc2s1 -12.2%
Cc1nn(-c2ccc(N3CCCCC3)nn2)c(C)c1CCC(=O)Nc1ccc(F)cc1F -5.78%
CCOC(=O)c1c(C)[nH]c(C)c1S(=O)(=O)NCC(=O)Nc1cccc(C#N)c1 3.6%
COc1ccc(S(=O)(=O)N2CCC(C(=O)Nc3ccccc3)CC2)cc1OC 8.24%
Cc1ccc(Cn2cc(S(=O)(=O)c3cccc(Cl)c3)c(=O)c3cc(F)c(N4CCCCC4)cc32)cc1 8.17%
Cc1cc(N2CCC(C)CC2)nc2ccc(NC(=O)Cc3c(F)cccc3Cl)cc12 -4.75%
COc1ccc(OC)c(CNC(=O)c2ccc3c(c2)c(C)c(C)n3Cc2ccc(Cl)cc2)c1 2.28%
O=C(C1CCCN(S(=O)(=O)c2cccc3nsnc23)C1)N1CCN(c2ccccc2)CC1 (stereo unspecified) 6.46%
CCc1ccc(NC(=O)CN(c2ccc(Cl)cc2)S(=O)(=O)c2ccsc2C(=O)OC)cc1 2.63%
CCOc1ccc(NC(=O)c2c(NCc3cccc(OC)c3OC)sc3c2CCC3)cc1 4%
CCOC(=O)c1noc2nc(C)n(CC(=O)NC(C)CC)c(=O)c12 (stereo unspecified) -5.81%
Nc1ccccc1NC(=O)c1ccc(CNC(=O)OCc2cccnc2)cc1 -23.6%

outcome, inactive:
Cc1ccc(NC(=O)C2CCCN(S(=O)(=O)c3cccc4nsnc34)C2)cc1C (stereo unspecified)
COc1ccc(C2(Nc3cccc(F)c3)C(=O)c3ccccc3C2=O)cc1
COCCNC(=O)C1CCN(C(=O)c2cc3sccc3n2Cc2ccc(Cl)cc2)CC1
Cn1nnc2c(NCc3ccc(Cl)cc3)ncnc21
COc1cccc(CNC(=O)Cc2c(C)c3c(cc(C)c4c(C)c(C)oc43)oc2=O)c1
COc1ccc(NC(=O)Cn2c(=O)n(Cc3ccccc3OC)c(=O)c3cccnc32)cc1Cl
COc1ccc2c(c1)sc1ncc(C(=O)NCc3ccccc3F)c(=O)n12
CCCCNC(=O)CSc1nc2n[nH]c(C)c2c(=N)n1-c1cccc(Cl)c1C
CCOc1ccc(NS(=O)(=O)c2ccc(C(=O)N(C)C)s2)cc1
O=C(c1cccc(Cl)c1)N1c2nc(-c3ccco3)nn2C2(CCCCC2)[C@@H]2CCCC[C@@H]21
COC(=O)c1scc(-c2ccc(C)cc2)c1S(=O)(=O)N1CCN(c2ccccc2)CC1
COc1cccc(NC(=O)CC(=O)Nc2ccc3nc4n(c(=O)c3c2)CCCCC4)c1
COc1cc(OC)cc(N2C(=O)N(Cc3ccc(C(C)(C)C)cc3)c3ccccc3S2(=O)=O)c1
CCOC(=O)N1CCN(C(=O)CN(c2ccccc2F)S(=O)(=O)c2ccc(C)cc2)CC1
Cc1ccc(C)c(CN2C(=O)C(O)(c3c(C)[nH]c4ccccc34)c3ccccc32)c1 (stereo unspecified)
Nc1c(C(=O)Nc2ccccc2Cl)c2ccccn2c1C(=O)c1ccccc1
